From patent CN117603358A

Legend:
Experiment in all cases: SPR (Biacore 8K), antibody captured on Protein A chip, RBD as analyte
[1] = biological target: SARS-CoV-2 BQ.1.1(Omicron) Spike RBD (SARS-CoV-2 BQ.1.1)
[2] = biological target: SARS-CoV-2 XBB(Omicron) Spike RBD (SARS-CoV-2 XBB)
[3] = biological target: SARS-CoV-2(BA.5) Spike RBD (SARS-CoV-2 BA.5)
[4] = biological target: SARS-CoV-2(BF.7) Spike RBD (SARS-CoV-2 BF.7)

B1: 双特异性抗体蛋白DIA-19 (bispecific antibody)
chain: QITLKESGPTLVKPTQTLTLTCTFSGFSLSTSGVGVAWIRQPPGKALEWLALIYWDNDKRSSPSLNNRLTITKDTSKNQVVLTMTNMDPEDTATYYCAHFFSHYDSSNYYYGSWFDPWGQGTLVTVSSGGGGSGGGGS[sequence of about 100 residues omitted]FTFGPGTKVDIKGGGGSGGGGSGGGGSGGGGSGGGGSEVQLVESGGGVVQPGGSLRLSCAVSGFTFDDYAMHWVRQAPGKGLDWVSLISGDGSYTYYADSVKGRFTISRDSSKNSLYLQMNSLRTEDTALYYCAKAQTPTLWWLQDAFDIWGQGTMVTVSSGGGGSGGGGSEIVLTQSPGTLSLSPGERATLSCRASQSFDSRYLGWYQQKSGQAPRLLIYGASSRATGIPDRFSGSGSGTDFTLTISRLEPEDFAVYYCQQFGDSPFTFGQGTKLEIKGGGGS[sequence of human IgG1 Fc with changes omitted]
B1 showed a Kd [1] of 0.203 nM, a Kd [2] of 0.0811 nM and a Kd [3] of 0.0359 nM. The Kd [4] was 0.045 nM.
